# Measurements from PubChem BioAssay AID1347417 (National Center for Advancing Translational Sciences (NCATS), 2020).
# Among all 120,000 compounds or so, about 5,300 (4.4%) were called active. This list was built around the results that the source calls inconclusive (neither active nor inactive); the mix of calls is not that of the screen. The call rests on the fitted dose curve; in most records, active means well fitted inhibition curve with a large enough effect; inconclusive means small, poorly fitted or top-dose-only effect; inactive means no such curve, though single readings can be large or run the other way. Potencies beside an inconclusive call are fits to weak or partial responses and may not hold up.
# Assay: qHTS Primary assay for Inhibitors of Plasmodium falciparum Dd2 growth in vitro; further: nearly all actives have a fitted effect of over 65% in size
# Settings: P. falciparum Dd2 growth, SYBR Green, 72 h; series mostly up to 28.9 µM
# Outline: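 Readout: SYBR Green fluorescence, 485 nm excitation, 535 nm emission, after ~16 h lysis at 37C. Before that, Dd2-infected red cells (2.5% hematocrit) grew 72 h with compound, 29 uM top final concentration.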
# Potency means the concentration at half of the fitted maximal effect; tags describe the fitted curve by direction and shape.
row,SMILES,Potency
1,COC(=O)c1ccc(NC(=O)CN2CCCN(Cc3ccc(Cl)cc3)S2(=O)=O)cc1,"inconclusive: 6.31 µM [inhibitor, partial curve]"
2,CN(Cc1nccn1Cc1ccccc1)C(=O)c1cccc(-n2cnnc2)c1,inactive
3,COc1ccc(-c2nc3c(c(=O)[nH]2)CCN(C(=O)Nc2ccccc2Cl)C3)cc1,"inconclusive: 7.94 µM [inhibitor, partial curve, poor fit]"
4,CCN1CCc2c(sc(NC(=O)c3ccc(S(=O)(=O)N(CCOC)CCOC)cc3)c2C(N)=O)C1,"inconclusive: 11.2 µM [inhibitor, single point]"
5,O=C1NCCOCCCN(S(=O)(=O)c2cccs2)[C@H]2CCCC[C@@H]12,inactive
6,Cc1ccc(CN(Cc2ccco2)C(=O)c2ccc(Cl)cc2Cl)cc1,"inconclusive: 12.6 µM [inhibitor, single point]"
7,CCc1ccccc1NC(=O)Cn1c(N2CCC(C)CC2)nc(C)cc1=O,"inconclusive: 2.82 µM [inhibitor, single point]"
8,COCCN1CCC2(CCC1=O)CCN(C(=O)Nc1ccc(Br)cc1)CC2,inactive
9,CCc1ccc(C(=O)CC2(O)C(=O)N(CCc3ccccc3)c3ccc(Br)cc32)cc1 (stereo not given),"inconclusive: 17.8 µM [inhibitor, single point]"
10,CCC1=Nc2cc(C(=O)NCCc3ccc(OC)c(OC)c3)ccc2Sc2ccccc21,"inconclusive: 8.91 µM [inhibitor, single point]"
11,COc1ccc(O[C@H]2COCCN(C(=O)c3ccc(C(F)(F)F)cc3)C2)cc1,inactive
12,COc1ccc(CCC(=O)NCc2ccc3c(c2)CCN3C(=O)c2ccc(Cl)cc2)cc1,"inconclusive: 3.98 µM [inhibitor, partial curve, poor fit]"
13,Cc1ccc(CSC2=Nc3ccccc3C3=NC(CCC(=O)NC4CCCCC4)C(=O)N23)cc1 (stereo not given),"inconclusive: 12.6 µM [inhibitor, single point]"
14,COc1ccc(C)cc1-c1cn(C)c(=O)n2cc(COc3ccc(Cl)cc3)nc12,"inconclusive: 0.631 µM [inhibitor, partial curve, poor fit]"
15,Cc1noc(C)c1S(=O)(=O)N1CCC2(CC1)CCC(O)(CN(C)C)CC2,inactive
16,O=C(Cn1nc2c(cc1=O)CCCCC2)N1CC=C(c2c[nH]c3ccccc23)CC1,"inconclusive: 17.8 µM [inhibitor, single point]"
17,CCc1ccc(NCc2cc3ccc(OC)cc3n(CC(=O)Nc3ccccc3C)c2=O)cc1,"inconclusive: 10 µM [inhibitor, single point]"
18,CC1(C)CC(NC(=O)C2CCN(c3nc(-c4ccccc4)nc4c3CCC4)CC2)CCO1 (stereo not given),"inconclusive: 10 µM [inhibitor, single point]"
19,NC(=O)C1CCN(C(=O)c2ccc3c(c2)N(Cc2cccc(Cl)c2)C(=O)c2ccccc2S3=O)CC1 (stereo not given),inactive
20,COc1ccc(CSc2nc3ccncc3n2CC(=O)Nc2cc(C)cc(C)c2)cc1,inactive
21,CCCCN(Cc1ccc(S(=O)(=O)NC)cc1)Cc1ccco1,inactive
22,O=C(NCc1ccc2c(c1)OCO2)C1COC2(CCCCC2)N1C(=O)c1cccc(F)c1 (stereo not given),"inconclusive: 17.8 µM [inhibitor, single point]"
23,Cc1cccc(N2CCN(C(c3ccccc3)c3nnc(-c4ccccc4F)o3)CC2)c1C (stereo not given),"inconclusive: 17.8 µM [inhibitor, single point]"
24,CCn1cc(CN2CCCC23CCN(c2cc(C)nc4ccccc24)CC3)cn1,"inconclusive: 3.16 µM [inhibitor, single point]"

row,SMILES,Potency
1,Fc1ccc(Nc2nc(SCc3ccccc3Cl)nc3ccccc23)cc1,"inconclusive: 12.6 µM [inhibitor, single point]"
2,Fc1ccc(C2Cn3nnc(-c4nc(-c5ccccc5Br)no4)c3CO2)cc1 (stereo not given),inactive
3,NC[C@H]1O[C@@H]2C[C@@H](CC(=O)N3CCC(F)(F)C3)O[C@@H]2[C@@H]1O,inactive
4,COc1ccccc1-c1[nH]nc2ncc(-c3cccc(O)c3)nc12,inactive
5,COc1ccc(-n2nc3ccc(NC(=O)c4c(OC)cccc4OC)cc3n2)cc1,"inconclusive: 12.6 µM [inhibitor, single point]"
6,CCC(CNc1nc(CCN)nc2ccccc12)N(C)CC (stereo not given),inactive
7,CC(C)NC(=O)NC[C@H]1C[C@@H]2CCN1C[C@@H]2c1cc(C2CCCCC2)nn1C,"inconclusive: 3.55 µM [inhibitor, single point]"
8,CC(=O)N[C@H]1C[C@@H](c2cc(C)c(C)cc2C)O[C@@H](C(C)(C)C)C1,"inconclusive: 15.8 µM [inhibitor, single point]"
9,Cc1ccc(CN2CCSc3ccc(C(=O)NCc4ccc(OC(C)C)cc4)cc32)cc1,inactive
10,COc1ccc(NC(=O)c2ccc3c(c2)N(C)C2CCCCCN2C3=O)cc1 (stereo not given),"inconclusive: 3.98 µM [inhibitor, single point]"
11,O=C(Cc1cccc(F)c1)N1CCn2c(nnc2[C@@H]2C[C@@H](O)CN2Cc2ccccc2)C1,inactive
12,CCc1ccc(NC(=O)CCc2c(C)nc3nc(-c4cc(OC)cc(OC)c4)nn3c2C)cc1,inactive
13,NS(=O)(=O)c1ccc(F)c(C(=O)NCc2ccc3nonc3c2)c1,inactive
14,COC(=O)CNC(=O)N1CCC(Oc2ncccc2C(=O)N2CCCCC2)C1 (stereo not given),inactive
15,CN(C1CCc2nn(CC3CC3)c(=O)n2CC1)S(=O)(=O)c1cccs1 (stereo not given),"inconclusive: 1.58 µM [inhibitor, full curve, poor fit]"
16,COCC1CN(C2CCC2)CC12CCN(S(=O)(=O)c1cnc[nH]1)CC2 (stereo not given),inactive
17,COc1ccc(C)cc1NC(=O)N1CCC(OC2CCN(S(C)(=O)=O)CC2)CC1,inactive
18,COc1ccc(-c2nc(CN3CCN(CCO)CC3)c(C)o2)c2ccccc12,active: 11.2 µM
19,Cc1ccccc1NC(=O)c1cc2c(-c3ccccc3)nn(-c3ccccc3)c2s1,"inconclusive: 1.12 µM [inhibitor, full curve, poor fit]"
20,COc1ccc(N(Cc2ccccc2)C(=O)c2nc(S(C)(=O)=O)ncc2Cl)cc1,"inconclusive: 17.8 µM [inhibitor, single point]"
21,CC(C)(C(=O)O)c1cnc(N2C[C@@H](CO)[C@H](CO)C2)nc1N1CCOCC1,inactive
22,COCc1cc(C)nc2sc(C(=O)Nc3ccccc3O)c(N)c12,active: 8.91 µM
23,Cc1ccc(OCCn2cc(C(=O)c3cccs3)c3ccccc32)cc1,active: 3.98 µM
24,COc1ccc(C2CC(=O)c3c([nH]c(C(=O)OCc4ccccc4)c3C)C2)cc1 (stereo not given),inactive

row,SMILES,Potency
1,COc1ccccc1-c1c(C)nn2c(-c3ccccc3)cc(-c3ccccc3)nc12,"inconclusive: 11.2 µM [inhibitor, single point]"
2,c1ccc(Nc2cc3c(cn2)CN(Cc2c[nH]c4ccccc24)CCN3)cc1,active: 4.47 µM
3,COc1ccc(OC)c(-c2cc(-c3cccs3)nc3c(C)noc23)c1,inactive
4,Cn1cnnc1CC1CCN(C(=O)CCc2nc3ccccc3[nH]c2=O)CC1,"inconclusive: 2.24 µM [inhibitor, partial curve, poor fit]"
5,CCOC(=O)C1(Cc2ccc(OC)cc2)CCN(C(=O)CCc2ccccc2OC)CC1,"inconclusive: 20 µM [inhibitor, partial curve, poor fit]"
6,Cc1ccc(Nc2nc(-c3ccccc3)nc3ccccc23)cc1,"inconclusive: 17.8 µM [inhibitor, single point]"
7,COc1cccc(CN2CCC3(CC2)Cc2ccccc2NC3=O)c1,"inconclusive: 0.562 µM [inhibitor, full curve, poor fit]"
8,COc1cc(Cl)c(C)cc1NC(=O)CN1C(=O)C(c2ccccc2)=NC12CCCC2,active: 11.2 µM
9,O=C(NCc1ccccc1)c1cnc2n1CCN(CCCc1ccccc1)CC2,inactive
10,Cc1ccc(S(=O)(=O)c2nnn3c2nc(NCc2ccc(F)cc2)c2ccccc23)cc1,inactive
11,CC(=O)c1ccc(S(=O)(=O)Nc2ccc(-c3cn4c(C)csc4n3)cc2)cc1,inactive
12,COc1ccc(C)cc1NC(c1nnc(-c2ccccc2)o1)c1ccc(F)cc1Cl (stereo not given),"inconclusive: 12.6 µM [inhibitor, single point]"
13,CCOC(=O)c1c(NC(=O)c2ccc(C)cc2)sc2c1CCCCC2,inactive
14,COc1ccc([C@H]2CN(C(=O)c3ccc(C#CC(C)(C)O)cc3)C[C@@H]2N)cc1,"inconclusive: 8.91 µM [inhibitor, single point]"
15,CCc1ccc(NC(=O)c2sc(-n3nc(C)c(CCC(C)C)c3C)nc2C)cc1,"inconclusive: 11.2 µM [inhibitor, single point]"
16,O=C(NC1CC1)C1COC2(CCN(C(=O)c3ccc(Cl)cc3)CC2)N1C(=O)c1cccc(F)c1 (stereo not given),inactive
17,COc1cc(C)ccc1OCC(=O)c1ccc2c(c1)N(CC(=O)N1CCCC1)C(=O)CO2,"inconclusive: 4.47 µM [inhibitor, partial curve]"
18,NCc1ccc(-c2ccc(F)cc2F)cc1,"inconclusive: 11.2 µM [inhibitor, single point]"
19,COc1ccc(NC(=O)c2ccc3oc(=O)c(S(=O)(=O)c4ccc(F)cc4)cc3c2)cc1OC,inactive
20,O=C1CCN(C(=O)[C@@H]2CCCN2Cc2cccc(OC(F)(F)F)c2)CCCCCCN1,"inconclusive: 12.6 µM [inhibitor, single point]"
21,CC(=O)N1Cc2ccccc2CC2(CCCN(CC3CCCC3)C2)C1 (stereo not given),"inconclusive: 11.2 µM [inhibitor, partial curve]"
22,Cc1ccc(-c2nnc(C3CN(C(=O)c4n[nH]c5ccccc45)CC34CCOCC4)o2)cc1 (stereo not given),active: 8.91 µM
